Results reported in the RNAGym collection of RNA variant scans (doi:10.1093/nar/gkz1192).
The source gives no read counts; variants with many changes may rest on few reads.

B1: CPEB3 Ribozyme (parent)
chain: UAACAGGGGGCCACAGCAGAAGCGUUCACGUCGCAGCCCCUGUCAGAUUCUGGUGAAUCUGCGAAUUCUGCUGUAUAUCUC

Variants of: B1
Test: self-cleavage, relative activity (ratio to wild type); higher = more cleavage; in vitro, sequencing
Procedure, shortened: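 For each CPEB3 ribozyme variant, relative activity is its cleaved/total read fraction divided by the unmutated ribozyme's. Barcoded error-prone PCR libraries were transcribed by T7 RNA polymerase (5 hours, 37°C) and held in DNase I for 15 min before an EDTA stop, with cleavage occurring throughout. Template-switching reverse transcription and Illumina sequencing were used to read the RNAs. A 5-read minimum applied, and results are the mean of three batches.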

Row | Variant | self-cleavage
1 | A2G A5U A15G A47G U48C | 0.54
2 | A2G A5U A15U C44U | 0.61
3 | A2G A5U A18G C29U A45G U72A | 0.13
4 | A2G A5U A20G U26G A35U U51G | 0.06
5 | A2G A5U A21G U26A U66C | 0.96
6 | A2G A5U A28G C29G A65G | 0.42
7 | A2G A5U A47G U74C | 1.24
8 | A2G A5U C37A | 0.16
9 | A2G A5U G10A U25C A56G U60A | 0.2
10 | A2G A5U G42U U67C U80A | 0.05
11 | A2G A5U U25C U31C U51C U58A A64G | 0.12
12 | A2G A5U U31C C62U | 0.2
13 | A2G A5U U43C A65G | 0.24
14 | A2G A5U U48C | 0.4
15 | A2G A5U U49A U58A | 0.32
16 | A2G A5U U54C U76C | 1.12
17 | A2G A5U U72A | 1.28
18 | A2G A13C A64U | 0.47
19 | A2G A13C U25C U26G A45G A56G | 0.47
20 | A2G A13C U25C U49C G70A | 0.22
21 | A2G A13C U31A U69C U72G | 0.12
22 | A2G A13C U72C U74C | 0.41
23 | A2G A13G A15G C38U C59A U72C | 0.47
24 | A2G A13G A15G U41A U48C | 0.1

Row | Variant | self-cleavage
25 | A2G A13G A18G A28U | 0.72
26 | A2G A13G A18G A45G A47U A75U | 0.57
27 | A2G A13G A20G | 0.43
28 | A2G A13G A21G U25C U67C A77G | 0
29 | A2G A13G A35U | 0.73
30 | A2G A13G A35U U60A | 0.05
31 | A2G A13G C27A U72C | 0.35
32 | A2G A13G C38U U51C A64G | 0.21
33 | A2G A13G C39U | 0.35
34 | A2G A13G G55C A64G U78A | 0.09
35 | A2G A13G U26C C29U | 0.3
36 | A2G A13G U26C U41C | 0.5
37 | A2G A13G U41G G52U G70A U80C | 0.24
38 | A2G A13G U43C U54C U69A U74A | 0.09
39 | A2G A13G U78C | 0.6
40 | A2G A13U A15G C40A G70A | 0.08
41 | A2G A13U A15U A65G | 0.1
42 | A2G A13U A18G A21G U74C | 0.69
43 | A2G A13U A18G U76A | 0.54
44 | A2G A13U A20G A47G U58A U72C U78A | 0.03
45 | A2G A13U A20G U41A A65G U69A U72C | 0.07
46 | A2G A13U A20G U54C A56U U60A | 0.12
47 | A2G A13U A21U U72C U80C | 0.72
48 | A2G A13U A28G U69C | 0.1

Row | Variant | self-cleavage
49 | A2G A13U A28U U41C A64G | 0.19
50 | A2G A13U A45G | 0.47
51 | A2G A13U A45G U54G C59U A65G U80C | 0.14
52 | A2G A13U A57G U69A | 0.2
53 | A2G A13U G16C A18G A28U C34U A56G | 0.09
54 | A2G A13U U26A C32U A65G U72C U80C | 0.06
55 | A2G A13U U41A | 0.23
56 | A2G A13U U41C U67A | 0.39
57 | A2G A13U U49A | 0.46
58 | A2G A13U U58C | 0.19
59 | A2G A13U U66C U74C | 0.13
60 | A2G A13U U80C | 0.89
61 | A2G A15C A18G U43G U48A | 0.08
62 | A2G A15C A21U U31C U41C U43A U67C | 0.03
63 | A2G A15C U25C C40U | 0.56
64 | A2G A15C U25C U60A U67C | 0.29
65 | A2G A15G A21G C32A A35G U60C | 0.25
66 | A2G A15G A21G G33C U43C U67C | 0.07
67 | A2G A15G A35U U41A | 0.08
68 | A2G A15G A45G | 0.21
69 | A2G A15G G33A | 0.41
70 | A2G A15G U26A C79U | 0.45
71 | A2G A15G U26A U69A U72C | 0.12
72 | A2G A15G U26C U41A U67C A77G | 0.29

Row | Variant | self-cleavage
73 | A2G A15G U31A U43A A45U | 0.2
74 | A2G A15G U41A U43C A56C C62G | 0.12
75 | A2G A15G U43A | 0.9
76 | A2G A15G U58C | 0.29
77 | A2G A15U A21G A28G C81U | 0.1
78 | A2G A15U A28U U54C U58C | 0.22
79 | A2G A15U A45G G61U | 0.13
80 | A2G A15U A47C U54C U72A | 0.05
81 | A2G A15U A47G A65G | 0.17
82 | A2G A15U G24C U31C U49A | 0.05
83 | A2G A15U G24U A45U U78A | 0.08
84 | A2G A15U U48C U78C | 0.26
85 | A2G A18C A20G U51A A56U | 0.08
86 | A2G A18C C40A U41C U49C C50U U78C | 0.06
87 | A2G A18C G24A U41C U80A | 0.07
88 | A2G A18C U31C U54C C59A | 0.24
89 | A2G A18C U43C U51A | 0.09
90 | A2G A18G A20G G33U U72G U80A | 0.08
91 | A2G A18G A21G U49C G63A A65G | 0.02
92 | A2G A18G A28G G30C C39A U51C | 0.06
93 | A2G A18G A28U G52C G63U | 0.26
94 | A2G A18G A45G U66C U67C | 0
95 | A2G A18G A56U C62A | 0.12
96 | A2G A18G C32A C38U U72C U74C | 0.04

Row | Variant | self-cleavage
97 | A2G A18G C34G | 0.34
98 | A2G A18G C40U A64G U74C | 0.36
99 | A2G A18G G33A C62U U78C | 0.21
100 | A2G A18G U26C | 0.55
101 | A2G A18G U26C A56G U72A | 0.24
102 | A2G A18G U26C U43C U48C U58C | 0.28
103 | A2G A18G U41C | 0.51
104 | A2G A18G U43C | 0.4
105 | A2G A18G U58C A75U | 0.2
106 | A2G A18U A20G U41C U43A U72C | 0.14
107 | A2G A18U A35G C37A G61A | 0.12
108 | A2G A18U A45G U60C | 0.58
109 | A2G A18U A56G U67A | 0.19
110 | A2G A18U C23A | 0.64
111 | A2G A18U C39A A45U G46C A77G | 0.01
112 | A2G A18U C44A U51C A65G A75C | 0.1
113 | A2G A18U G19U A35U A64U U72A | 0.04
114 | A2G A18U G24A C29U U72A | 0.14
115 | A2G A18U U25C U72A | 0.08
116 | A2G A18U U41A C71A | 0.36
117 | A2G A18U U48C | 0.24
118 | A2G A18U U60A U78C | 0.18
119 | A2G A18U U78C | 0.12
120 | A2G A20C A45U U54A | 0.48

Row | Variant | self-cleavage
121 | A2G A20C C40G | 0.35
122 | A2G A20C U41C U54C U60A U78C | 0.05
123 | A2G A20C U43C U80C | 0.09
124 | A2G A20G A28G C40A | 0.39
125 | A2G A20G A56G | 0.47
126 | A2G A20G A56G A64G | 0.34
127 | A2G A20G C29U U49C U54C U80C | 0.08
128 | A2G A20G C38U | 0.51
129 | A2G A20G G24A | 0.32
130 | A2G A20G G24A U51A U80C | 0.47
131 | A2G A20G G30A A35G U43C | 0.12
132 | A2G A20G G30A A35G U60C U69A | 0.31
133 | A2G A20G U26A C29G U48C | 0.11
134 | A2G A20G U26C A45G U54C | 0.42
135 | A2G A20G U26C U31C U43C U80C | 0.5
136 | A2G A20G U26C U43C A57G U78C U80C | 0.39
137 | A2G A20G U41A U54G A64G U74C | 0.25
138 | A2G A20G U48C U51C | 0.27
139 | A2G A20G U51C A56G U72A | 0.16
140 | A2G A20G U69A | 0.21
141 | A2G A20G U80C | 0.92
142 | A2G A20G U80G | 0.67
143 | A2G A20U A21G | 0.33
144 | A2G A20U A21G A28C A45G | 0.05

Row | Variant | self-cleavage
145 | A2G A20U A21G A35U U43C A56U | 0.24
146 | A2G A20U A21G A45C | 0.35
147 | A2G A20U A21G U60C U80A | 0.27
148 | A2G A20U A45G U60A | 0.08
149 | A2G A20U A56G C68G | 0.07
150 | A2G A20U A56U C71A | 0.07
151 | A2G A20U A57G | 0.15
152 | A2G A20U A57U U66A U80A | 0.43
153 | A2G A20U A64G | 0.29
154 | A2G A20U G24A U60A | 0.33
155 | A2G A20U U26C U43A | 0.45
156 | A2G A20U U43C A56U | 0.27
157 | A2G A20U U48C | 0.07
158 | A2G A20U U48G U54A | 0.06
159 | A2G A20U U60A U80C | 0.3
160 | A2G A20U U60C A64G | 0.05
161 | A2G A21C C40U G61A U66C G73A U78C | 0.14
162 | A2G A21G A28G G63A | 0.53
163 | A2G A21G A28G U66C | 0.13
164 | A2G A21G A35U | 0.68
165 | A2G A21G A45U U48C U49G A56G | 0.23
166 | A2G A21G A45U U48C U49G A56G U67A | 0.14
167 | A2G A21G A64G U69A | 0.19
